# According to the supplement of paper PMC8728848:
# The other results are listed elsewhere or left out.
# Key:
# Assay in all cases: glycan array binding signal (z-score within array); higher = stronger binding
# Details in all cases: glycan notation: IUPAC condensed, linker removed
# [1] = molecular target: Kdn(a2-3)Gal(b1-4)GlcNAc
# How it was run: (§1)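 Negative Z-scores can be read as non-binding. The Z-score is calculated within each array and then averaged across arrays of one protein sequence at different concentrations or buffers and across linkers. Arrays, 3228 in all, were curated from the Consortium for Functional Glycomics database and kept only where the protein sequence was available.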
# [2] = molecular target: Man(a1-2)Man(a1-2)Man(a1-3)Man
# How it was run: as §1
# [3] = molecular target: Man(a1-2)Man(a1-2)Man(a1-3)[Man(a1-2)Man(a1-3)[Man(a1-2)Man(a1-6)]Man(a1-6)]Man(b1-4)GlcNAc(b1-4)GlcNAc
# How it was run: as §1
# [4] = molecular target: Man(a1-2)Man(a1-2)Man(a1-3)[Man(a1-2)Man(a1-6)[Man(a1-3)]Man(a1-6)]Man(b1-4)GlcNAc(b1-4)GlcNAc
# How it was run: as §1
# [5] = molecular target: Man(a1-2)Man(a1-2)Man(a1-6)[Man(a1-3)]Man
# How it was run: as §1
# [6] = molecular target: Man(a1-2)Man(a1-3)Man
# How it was run: as §1
# [7] = molecular target: Man(a1-2)Man(a1-3)[Man(a1-2)Man(a1-6)]Man
# How it was run: as §1
# [8] = molecular target: Man(a1-2)Man(a1-3)[Man(a1-3)[Man(a1-6)]Man(a1-6)]Man(b1-4)GlcNAc(b1-4)GlcNAc
# How it was run: as §1
# [9] = molecular target: Man(a1-2)Man(a1-3)[Man(a1-6)]Man(a1-6)[Man(a1-2)Man(a1-3)]Man(b1-4)GlcNAc(b1-4)GlcNAc
# How it was run: as §1
# [10] = molecular target: Man(a1-3)[Man(a1-6)]Man
# How it was run: as §1
# [11] = molecular target: Man(a1-3)[Man(a1-6)]Man(a1-6)[Man(a1-3)]Man(b1-4)GlcNAc(b1-4)GlcNAc
# How it was run: as §1
# [12] = molecular target: Man(a1-3)[Man(a1-6)]Man(b1-4)GlcNAc(b1-4)GlcNAc
# How it was run: as §1
# [13] = molecular target: Man(b1-4)GlcNAc
# How it was run: as §1
# [14] = molecular target: Neu5Ac(a2-3)Gal
# How it was run: as §1
# [15] = molecular target: Neu5Ac(a2-3)Gal(b1-3)GalNAc
# How it was run: as §1
# [16] = molecular target: Neu5Ac(a2-3)Gal(b1-3)GalNAc(b1-3)Gal(a1-4)Gal(b1-4)Glc
# How it was run: as §1
# [17] = molecular target: Neu5Ac(a2-3)Gal(b1-3)GalNAc(b1-4)[Neu5Ac(a2-3)]Gal(b1-4)Glc
# How it was run: as §1
# [18] = molecular target: Neu5Ac(a2-3)Gal(b1-3)GalNAc6S
# How it was run: as §1
# [19] = molecular target: Neu5Ac(a2-3)Gal(b1-3)GlcNAc
# How it was run: as §1
# [20] = molecular target: Neu5Ac(a2-3)Gal(b1-3)GlcNAc(b1-3)Gal(b1-4)GlcNAc
# How it was run: as §1
# [21] = molecular target: Neu5Ac(a2-3)Gal(b1-3)GlcNAc6S
# How it was run: as §1
# [22] = molecular target: Neu5Ac(a2-3)Gal(b1-3)[Fuc(a1-4)]GlcNAc
# How it was run: as §1
# [23] = molecular target: Neu5Ac(a2-3)Gal(b1-3)[Fuc(a1-4)]GlcNAc(b1-3)Gal(b1-4)[Fuc(a1-3)]GlcNAc
# How it was run: as §1
# [24] = molecular target: Neu5Ac(a2-3)Gal(b1-3)[Neu5Ac(a2-3)Gal(b1-4)]GlcNAc
# How it was run: as §1
# [25] = molecular target: Neu5Ac(a2-3)Gal(b1-3)[Neu5Ac(a2-6)]GalNAc
# How it was run: as §1
# [26] = molecular target: Neu5Ac(a2-3)Gal(b1-4)Glc
# How it was run: as §1
# [27] = molecular target: Neu5Ac(a2-3)Gal(b1-4)GlcNAc
# How it was run: as §1
# [28] = molecular target: Neu5Ac(a2-3)Gal(b1-4)GlcNAc(b1-3)Gal(b1-4)GlcNAc
# How it was run: as §1
# [29] = molecular target: Neu5Ac(a2-3)Gal(b1-4)GlcNAc(b1-3)Gal(b1-4)GlcNAc(b1-3)Gal(b1-4)GlcNAc
# How it was run: as §1
# [30] = molecular target: Neu5Ac(a2-3)Gal(b1-4)GlcNAc(b1-3)Gal(b1-4)[Fuc(a1-3)]GlcNAc
# How it was run: as §1
# [31] = molecular target: Neu5Ac(a2-3)Gal(b1-4)GlcNAc6S
# How it was run: as §1
# [32] = molecular target: Neu5Ac(a2-3)Gal(b1-4)[Fuc(a1-3)]GlcNAc
# How it was run: as §1
# [33] = molecular target: Neu5Ac(a2-3)Gal(b1-4)[Fuc(a1-3)]GlcNAc(b1-3)Gal
# How it was run: as §1
# [34] = molecular target: Neu5Ac(a2-3)Gal(b1-4)[Fuc(a1-3)]GlcNAc(b1-3)Gal(b1-4)GlcNAc
# How it was run: as §1
# [35] = molecular target: Neu5Ac(a2-3)Gal(b1-4)[Fuc(a1-3)]GlcNAc(b1-3)Gal(b1-4)[Fuc(a1-3)]GlcNAc(b1-3)Gal(b1-4)[Fuc(a1-3)]GlcNAc
# How it was run: as §1
# [36] = molecular target: Neu5Ac(a2-3)Gal(b1-4)[Fuc(a1-3)]GlcNAc6S
# How it was run: as §1
# [37] = molecular target: Neu5Ac(a2-3)Gal6S(b1-4)GlcNAc
# How it was run: as §1
# [38] = molecular target: Neu5Ac(a2-3)Gal6S(b1-4)[Fuc(a1-3)]GlcNAc
# How it was run: as §1
# [39] = molecular target: Neu5Ac(a2-3)GalNAc
# How it was run: as §1
# [40] = molecular target: Neu5Ac(a2-3)GalNAc(b1-4)GlcNAc
# How it was run: as §1
# [41] = molecular target: Neu5Ac(a2-3)[GalNAc(b1-4)]Gal(b1-4)Glc
# How it was run: as §1
# [42] = molecular target: Neu5Ac(a2-3)[GalNAc(b1-4)]Gal(b1-4)GlcNAc
# How it was run: as §1
# [43] = molecular target: Neu5Ac(a2-3)[Neu5Ac(a2-6)]GalNAc
# How it was run: as §1
# [44] = molecular target: Neu5Ac(a2-6)Gal(b1-4)GlcNAc
# How it was run: as §1
# [45] = molecular target: Neu5Ac(a2-6)Gal(b1-4)GlcNAc(b1-2)Man(a1-3)[Neu5Ac(a2-6)Gal(b1-4)GlcNAc(b1-2)Man(a1-6)]Man(b1-4)GlcNAc(b1-4)GlcNAc
# How it was run: as §1
# [46] = molecular target: Neu5Ac(a2-6)Gal(b1-4)GlcNAc(b1-3)Gal(b1-4)GlcNAc
# How it was run: as §1
# [47] = molecular target: Neu5Ac(a2-6)Gal(b1-4)GlcNAc(b1-3)Gal(b1-4)[Fuc(a1-3)]GlcNAc(b1-3)Gal(b1-4)[Fuc(a1-3)]GlcNAc
# How it was run: as §1
# [48] = molecular target: Neu5Ac(a2-6)Gal(b1-4)GlcNAc6S
# How it was run: as §1
# [49] = molecular target: Neu5Ac(a2-6)GalNAc
# How it was run: as §1
# [50] = molecular target: Neu5Ac(a2-6)GalNAc(b1-4)GlcNAc
# How it was run: as §1
# [51] = molecular target: Neu5Ac(a2-8)Neu5Ac
# How it was run: as §1
# [52] = molecular target: Neu5Ac(a2-8)Neu5Ac(a2-3)Gal(b1-4)Glc
# How it was run: as §1
# [53] = molecular target: Neu5Ac(a2-8)Neu5Ac(a2-3)[GalNAc(b1-4)]Gal(b1-4)Glc
# How it was run: as §1
# [54] = molecular target: Neu5Ac(a2-8)Neu5Ac(a2-8)Neu5Ac
# How it was run: as §1
# [55] = molecular target: Neu5Ac(a2-8)Neu5Ac(a2-8)Neu5Ac(a2-3)Gal(b1-4)Glc
# How it was run: as §1
# [56] = molecular target: Neu5Ac(a2-8)Neu5Ac(a2-8)Neu5Ac(a2-3)[GalNAc(b1-4)]Gal(b1-4)Glc
# How it was run: as §1
# [57] = molecular target: Neu5Ac(a2-8)Neu5Ac(a2-8)Neu5Ac(a2-8)Neu5Ac(a2-3)[GalNAc(b1-4)]Gal(b1-4)Glc
# How it was run: as §1
# [58] = molecular target: Neu5Ac9Ac(a2-6)Gal(b1-4)GlcNAc
# How it was run: as §1
# [59] = molecular target: Neu5Gc(a2-3)Gal(b1-3)GlcNAc
# How it was run: as §1
# [60] = molecular target: Neu5Gc(a2-3)Gal(b1-3)[Fuc(a1-4)]GlcNAc
# How it was run: as §1
# [61] = molecular target: Neu5Gc(a2-3)Gal(b1-4)Glc
# How it was run: as §1
# [62] = molecular target: Neu5Gc(a2-3)Gal(b1-4)GlcNAc
# How it was run: as §1
# [63] = molecular target: Neu5Gc(a2-3)Gal(b1-4)[Fuc(a1-4)]GlcNAc
# How it was run: as §1
# [64] = molecular target: Neu5Gc(a2-6)Gal(b1-4)GlcNAc
# How it was run: as §1
# [65] = molecular target: Neu5Gc(a2-6)GalNAc
# How it was run: as §1
binder,measurement,setting,value
"Dectin-1 CTLD (Mus musculus), Q6QLQ4 (protein) MKYHSHIENLDEDGYTQLDFSTQDIHKRPRGSEKGSRAPSSPWRPIAVGLGILCFVVVVVAAVLGALAFWRHNSGRNPEEKDNFLSRNKENHKPTESSLDEKVAPSKASQTTGGFSQSCLPNWIMHGKSCYLFSFSGNSWYGSKRHCSQLGAHLLKIDNSKEFEFIESQTSSHRINAFWIGLSRNQSEGPWFWEDGSAFFPNSFQVRNTVPQESLLHNCVWIHGSEVYNQICNTSSYSICEKEL",glycan array binding signal (z-score),[1],0.139
same,glycan array binding signal (z-score),[2],-0.431
same,glycan array binding signal (z-score),[3],0.167
same,glycan array binding signal (z-score),[4],0.004
same,glycan array binding signal (z-score),[5],-0.46
same,glycan array binding signal (z-score),[6],0.926
same,glycan array binding signal (z-score),[7],-0.241
same,glycan array binding signal (z-score),[8],0.104
same,glycan array binding signal (z-score),[9],-0.151
same,glycan array binding signal (z-score),[10],-0.209
same,glycan array binding signal (z-score),[11],-0.433
same,glycan array binding signal (z-score),[12],-0.339
same,glycan array binding signal (z-score),[13],-0.259
same,glycan array binding signal (z-score),[14],0.055
same,glycan array binding signal (z-score),[15],-0.225
same,glycan array binding signal (z-score),[16],0.133
same,glycan array binding signal (z-score),[17],0.381
same,glycan array binding signal (z-score),[18],-0.299
same,glycan array binding signal (z-score),[19],-0.294
same,glycan array binding signal (z-score),[20],-0.258
same,glycan array binding signal (z-score),[21],1.26
same,glycan array binding signal (z-score),[22],0.4
same,glycan array binding signal (z-score),[23],0.521
same,glycan array binding signal (z-score),[24],-0.124
same,glycan array binding signal (z-score),[25],-0.324
same,glycan array binding signal (z-score),[26],-0.087
same,glycan array binding signal (z-score),[27],0.569
same,glycan array binding signal (z-score),[28],0.256
same,glycan array binding signal (z-score),[29],-0.006
same,glycan array binding signal (z-score),[30],-0.247
same,glycan array binding signal (z-score),[31],0.103
same,glycan array binding signal (z-score),[32],-0.225
same,glycan array binding signal (z-score),[33],0.033
same,glycan array binding signal (z-score),[34],-0.03
same,glycan array binding signal (z-score),[35],7.53
same,glycan array binding signal (z-score),[36],-0.334
same,glycan array binding signal (z-score),[37],-0.245
same,glycan array binding signal (z-score),[38],-0.108
same,glycan array binding signal (z-score),[39],1.19
same,glycan array binding signal (z-score),[40],-0.286
same,glycan array binding signal (z-score),[41],-0.314
same,glycan array binding signal (z-score),[42],-0.074
same,glycan array binding signal (z-score),[43],-0.211
same,glycan array binding signal (z-score),[44],-0.081
same,glycan array binding signal (z-score),[45],-0.037
same,glycan array binding signal (z-score),[46],0.476
same,glycan array binding signal (z-score),[47],-0.287
same,glycan array binding signal (z-score),[48],-0.16
same,glycan array binding signal (z-score),[49],0.06
same,glycan array binding signal (z-score),[50],0.522
same,glycan array binding signal (z-score),[51],-0.128
same,glycan array binding signal (z-score),[52],-0.19
same,glycan array binding signal (z-score),[53],-0.03
same,glycan array binding signal (z-score),[54],5.28
same,glycan array binding signal (z-score),[55],0.086
same,glycan array binding signal (z-score),[56],0.148
same,glycan array binding signal (z-score),[57],0.417
same,glycan array binding signal (z-score),[58],-0.528
same,glycan array binding signal (z-score),[59],-0.157
same,glycan array binding signal (z-score),[60],-0.041
same,glycan array binding signal (z-score),[61],0.654
same,glycan array binding signal (z-score),[62],-0.231
same,glycan array binding signal (z-score),[63],0.569
same,glycan array binding signal (z-score),[64],0.289
same,glycan array binding signal (z-score),[65],-0.2
